Source: the RNAGym collection of RNA variant scans (doi:10.7554/elife.90254)
The source gives no read counts; variants with many changes may rest on few reads.

B1: LINE1-full (parent)
chain: UACGUAGGUGGUUUUCCCCUGAUAGUGCUAAGGGGGCCUGGAAGUUUGGACUGGGCAGAGCUCAACACAGCGUGGCAAAGUGGCUGUGGCUAGACUGCCUCUCUGGAUUCCUCGUCACUCAGCAGGGCAUCUCUGAGAGAAAUGCC

Variants of: B1
Experiment: self-cleavage, relative activity (ratio to wild type); higher = more cleavage; in vitro, sequencing; the parent is a self-cleaving ribozyme
Work on A6G U62A U87C U112C yielded a self-cleavage of 0. Work on A6G U62C A78G U108C yielded a self-cleavage of 0. A6G U62C G80A U112A A138G gave a self-cleavage of 0.17. For A6G U62C G86A U119A, the self-cleavage was 0.1. For A6G U73C A79G U109A, the self-cleavage was 0.4. Work on A6G U81C C90U yielded a self-cleavage of 0.11. A6G U81C U108C A121U gave a self-cleavage of 2.04. A6G U85A C99A C101U U143C gave a self-cleavage of 0.18. Work on A6G U85C A141G yielded a self-cleavage of 0.4. A6G U87A A92G gave a self-cleavage of 0.12. A6G U87A G114A gave a self-cleavage of 0.07. A6G U87C A92U A142G gave a self-cleavage of 0. Work on A6G U87C U100G yielded a self-cleavage of 0. A6G U91A A138G A142G U143C showed a self-cleavage of 2.12. With A6G U96C A107G A117U C131G the self-cleavage was 0.54. In the case of A6G U96C U115C, the self-cleavage is reported as 0. For A6G U100C U119C, the self-cleavage was 0.46. A6G U102A U109A showed a self-cleavage of 0.53. A6G U104A G125U C146U gave a self-cleavage of 1.07. A6G U108C A142G gave a self-cleavage of 2.19. In the case of A6G U109A U115C G126U, the self-cleavage is reported as 1.16. Variant A6G U109A U143A has a self-cleavage of 0.85. A6G U112C A142G U143A gave a self-cleavage of 1.73. A6G U115A U132C gave a self-cleavage of 1.11. A6U A24G A64C showed a self-cleavage of 0.36. In the case of A6U A24U A59G A79G A117C, the self-cleavage is reported as 0.97. In the case of A6U A43G U45C C98U A129G A142G, the self-cleavage is reported as 0.17. With A6U A50G A65G G88A A94G U112C A124G the self-cleavage was 0. Variant A6U A64G A65G has a self-cleavage of 0. Work on A6U A65U A79G yielded a self-cleavage of 0.17. A6U A67G U73A G122U showed a self-cleavage of 0.61. A6U A67U U108C C113U showed a self-cleavage of 0.26. For A6U A78U U130C, the self-cleavage was 1.51. Work on A6U A79G G86A yielded a self-cleavage of 0.25. With A6U A107G A121U the self-cleavage was 0.74. A6U C18A U47C showed a self-cleavage of 0.78. A6U C28U A43G U104A gave a self-cleavage of 0.6. A6U G32A A69U gave a self-cleavage of 0.08. For A6U G35A A50U A77G, the self-cleavage was 0.89. A6U G35A A79G U85C U108C A124U showed a self-cleavage of 0.57. A6U G35C U96C showed a self-cleavage of 0.1. Variant A6U G35U A43G has a self-cleavage of 1.07. A6U G36A C68U A107G A129G showed a self-cleavage of 0.11. A6U G36C A121G A129G showed a self-cleavage of 0.77. With A6U G70A U115C A142G the self-cleavage was 0.06. In the case of A6U G125U A129G, the self-cleavage is reported as 0.86. With A6U U9A A79U U81A U119A A141G the self-cleavage was 2.08. Variant A6U U12C A57G has a self-cleavage of 0.98. Work on A6U U12C C38U A107U yielded a self-cleavage of 0.9. A6U U12C U15A A67G C84A U104C A117G U130A U143A showed a self-cleavage of 0. In the case of A6U U12G A136G A141U, the self-cleavage is reported as 0.91. In the case of A6U U13C A59G U104C A140U, the self-cleavage is reported as 0. Work on A6U U13C G53A yielded a self-cleavage of 0.8. For A6U U14C G36C, the self-cleavage was 1.15. Variant A6U U14C G40U A69G A92U U112A A138U U143A has a self-cleavage of 0.16. Variant A6U U14C U15C A69U U108C has a self-cleavage of 0.68. For A6U U15A A43G, the self-cleavage was 0.57. For A6U U15C A65U U87A A117G, the self-cleavage was 0.33. Work on A6U U20A U119C yielded a self-cleavage of 1.77. For A6U U23C U62C, the self-cleavage was 0.37. Variant A6U U26C G58A G144A has a self-cleavage of 0.13. With A6U U26C U73A the self-cleavage was 1.69. Variant A6U U39A A77C G89U has a self-cleavage of 0.07. For A6U U39C A67U A121U, the self-cleavage was 0.5. Variant A6U U39C U52C has a self-cleavage of 0. Work on A6U U45C A50U U132G A136U yielded a self-cleavage of 1.15. Variant A6U U45C A124G has a self-cleavage of 0.31. A6U U45C G89A U91C G93U A129G A140G A142G showed a self-cleavage of 0. In the case of A6U U45G A136U, the self-cleavage is reported as 0.69. Variant A6U U47A G53A A57G C98U A107G U130C has a self-cleavage of 0.05. A6U U52C U87A showed a self-cleavage of 0.41. A6U U52G A107G showed a self-cleavage of 0. In the case of A6U U73A A124G, the self-cleavage is reported as 1.35. For A6U U91C A140G, the self-cleavage was 0. In the case of A6U U104A A124G, the self-cleavage is reported as 0.33. For A6U U112C A138G, the self-cleavage was 0.79. With G7A A24G A31G the self-cleavage was 1.49. In the case of G7A A30U A92C U112C U143A, the self-cleavage is reported as 0. G7A A42G A57U A65U U143C gave a self-cleavage of 0.04. Work on G7A A43G G60U C111U yielded a self-cleavage of 0.03. G7A A43G U62C C76U A124G showed a self-cleavage of 0.04. Variant G7A A64U U115A A141G has a self-cleavage of 0.46. In the case of G7A A140G U143C, the self-cleavage is reported as 1.08. For G7A C17U A57G A64C, the self-cleavage was 0.32. With G7A C17U U132A the self-cleavage was 0.54. With G7A C19U U104C G114A the self-cleavage was 1.09. G7A G36A A50G C51G A117G A140G showed a self-cleavage of 0.18. Variant G7A G54A A124G U143A has a self-cleavage of 0.28. For G7A U9A A67C U85A U134C, the self-cleavage was 0.04. G7A U9A G32A G53A C146U gave a self-cleavage of 1.07. Variant G7A U9A U13C A78G A79G has a self-cleavage of 1.58. For G7A U9G U13A A30U, the self-cleavage was 1.2. In the case of G7A U12A U13A U26A U39C U52C C90U U104G U119A, the self-cleavage is reported as 0.12. Work on G7A U12A U13C yielded a self-cleavage of 0.81. Work on G7A U12C U45C U62C C71U yielded a self-cleavage of 0.09. In the case of G7A U12G A50G A121C C128U, the self-cleavage is reported as 1.07. For G7A U13C A136G, the self-cleavage was 1.22. For G7A U13C G80A, the self-cleavage was 1.67. G7A U13C U47C G114A gave a self-cleavage of 0.9. Variant G7A U13G A59G has a self-cleavage of 0.09. Work on G7A U14A A42G A79G U143C yielded a self-cleavage of 1.47. In the case of G7A U14C U62C U112C A136G, the self-cleavage is reported as 0.15. In the case of G7A U20C A65G C90U U104A, the self-cleavage is reported as 0.27. For G7A U23G U46A U73C, the self-cleavage was 1.46. G7A U26A U87C A107G showed a self-cleavage of 0.16. For G7A U46A U73A, the self-cleavage was 0.49. Variant G7A U46C A50G U91A U109A has a self-cleavage of 1.48. Work on G7A U62C A65G yielded a self-cleavage of 0.21. G7A U62C U104A showed a self-cleavage of 0.03. G7A U73A A136U gave a self-cleavage of 1.97. G7A U81C C146U gave a self-cleavage of 0.74. G7A U85A U115C showed a self-cleavage of 0.04. Work on G7A U102C U143G yielded a self-cleavage of 2.76. Work on G7A U119C A140C yielded a self-cleavage of 0.97. In the case of G7C A24G U91C U134C, the self-cleavage is reported as 1.53. Work on G7C A69U U87C yielded a self-cleavage of 0.16. For G7C G74A U85C U130C A142G, the self-cleavage was 0.04. For G7C U9A C19U U62C U119C U130C, the self-cleavage was 0. Variant G7C U39C U132C has a self-cleavage of 1.77. Variant G7C U108C U115A has a self-cleavage of 0.95. In the case of G7C U109C A138G, the self-cleavage is reported as 1.1. In the case of G7C U130C U134C, the self-cleavage is reported as 1.59. With G7U A42G A124U the self-cleavage was 1.78. Work on G7U A43G A138G yielded a self-cleavage of 1.16. With G7U A43G A140G the self-cleavage was 0.2. For G7U A43G U115C, the self-cleavage was 0.84. Variant G7U A50U U119C U134A has a self-cleavage of 1.21. G7U A57U U73C G89A showed a self-cleavage of 0.05. Variant G7U A64U A94G has a self-cleavage of 0.33. In the case of G7U A67G A140G, the self-cleavage is reported as 0.77. With G7U A67G U85A the self-cleavage was 0.11. G7U G8U A129U gave a self-cleavage of 1.99. Variant G7U G11A A43G A57U U73G U143C has a self-cleavage of 0.3. With G7U G33C C76U C120U the self-cleavage was 1.29. Work on G7U G34A A50G A142G yielded a self-cleavage of 0.81. For G7U G74A C120A, the self-cleavage was 1.01. With G7U G127A C145U the self-cleavage was 1.74. Work on G7U U13C U46C A69U U91C yielded a self-cleavage of 0. In the case of G7U U14C C95U, the self-cleavage is reported as 0.08. With G7U U14C U29A the self-cleavage was 1.15. With G7U U15C C61U U134A A142G the self-cleavage was 0.04. With G7U U20C A77G C95U the self-cleavage was 0.52. With G7U U47C U62C the self-cleavage was 0.38. Work on G7U U62C A136G yielded a self-cleavage of 0.02. G7U U73C U115A U119A showed a self-cleavage of 2.3. In the case of G7U U87C U132A, the self-cleavage is reported as 0. G7U U91C A117G showed a self-cleavage of 1.53. G7U U102C A129G gave a self-cleavage of 1.18. G7U U108A A138C showed a self-cleavage of 2.13. Variant G8A A24G G35A A141G has a self-cleavage of 0.85. For G8A A24U U134C, the self-cleavage was 0.96. For G8A A31U U96A, the self-cleavage was 0.23. In the case of G8A A43G U132C A141C, the self-cleavage is reported as 1.65. G8A A59G A129G showed a self-cleavage of 0.54. Work on G8A A65G U96C yielded a self-cleavage of 0. For G8A A77G A121G, the self-cleavage was 3. G8A A117U A129G gave a self-cleavage of 1.15. Variant G8A C63A A141G has a self-cleavage of 0. Work on G8A G32U A107G yielded a self-cleavage of 0.71. Variant G8A G35U G54A has a self-cleavage of 0.64. Variant G8A G53C U104A has a self-cleavage of 1.5. Variant G8A G55U G125A A140G U143C has a self-cleavage of 0.33. For G8A G72A A78G U109C A117U U132C, the self-cleavage was 1.85. Work on G8A G127U A138U yielded a self-cleavage of 1.21. In the case of G8A U9C A22U, the self-cleavage is reported as 2.6. G8A U9C A43G U85A C131A showed a self-cleavage of 0.33. With G8A U13C U81A C128G the self-cleavage was 2.2.
